Article PMC12136788
Some of the results follow.

T1: UNK ZnF1-3 (human, UniProt Q9C0B0 31-174)
T1 sequence: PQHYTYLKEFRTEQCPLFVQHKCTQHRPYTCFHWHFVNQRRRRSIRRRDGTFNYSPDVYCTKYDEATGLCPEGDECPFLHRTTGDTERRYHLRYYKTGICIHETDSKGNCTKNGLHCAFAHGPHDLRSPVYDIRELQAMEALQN

B1: chr4:148551591:148551592:-_ENSMUSG00000063077_ENSMUST00000060537|mus_hu|mus_mus_mus_hu_False|48_48 (ssRNA)
RNA: GGGAGUUCUACAGUCCGACGAUCACCUGACAAAAUUAAAUAUCCCUGUAAAUUAGACAAUAAGCAGCAGGCAACAAAGUCUUUGCUUUGAAAUAUGUGCCAGGAAAAGUCAUCUUGUUUUUAGAUCUCAAGAGACAGUUCACACAACAGAGGAUUGAGCAUCA
B2: chr5:23655024:23655025:+_ENSMUSG00000028986_ENSMUST00000030841|mus_mus|motif|central (ssRNA)
RNA: GGGAGUUCUACAGUCCGACGAUCAUUGUAGCAAUCCAUUCGCUUUAUGGGGAAAAGCUGAGAACCUCCCAAAAUGUAUACGGCAUUGUCCCAAAACACACAUGCUGCAUCUCUUCGUUUUUCAAAGGGGCAGCGAAUGUCUGUCAACAGAGGAUUGAGCAUCA
B3: 87861455_87862032_296_3pUTR_ENSMUSG00000018379_ENSMUST00000079866|mouse|control|control (ssRNA)
RNA: GGGAGUUCUACAGUCCGACGAUCAGUCGUAGCCGUCGCGACCGUACACCGCAUCUUCCGCGUCUCGCGGGUCCUCGAACUCAACGAAGGCGAAGGGCGGUCCCCCGCGGCGGUUCUUCAGGUCGAUGUCGCGGAUGGCGCCGUCAACAGAGGAUUGAGCAUCA
B4: chr2:5814250:5814251:-_ENSMUSG00000025816_ENSMUST00000102981|mus_hu|mus_mus_mus_hu_True|58_68 (ssRNA)
RNA: GGGAGUUCUACAGUCCGACGAUCUUCCUUUCCGGUUUCUGAAUUUCUGGUAGAACUGCACAGAAUGGUUUAAUAACUUCUAAAAACUUGAUGCCCAUGGCUGCUGCUGGGGAGGCCCAGGGGGAAACCGCGGCCUCGGCGCUGCAACAGAGGAUUGAGCAUCA
B5: chr8:77776764:77776765:+_ENSG00000091656_ENST00000521891|hu_hu|FALSE|FALSE (ssRNA)
RNA: GGGAGUUCUACAGUCCGACGAUCUUUAAGCACGGGAUCCUGUCUUCACUCCUACACACUGAACAUAUCCAUUCGGAUGCUAUUGAAAUUACCAUCUAGGCCAGAAGCAGGCUUAGCCUUCACUUCCAAAGAAUUAUCUAAGUCCAACAGAGGAUUGAGCAUCA
B6: 38862610_38862730_1087_CDS_ENSG00000157540_ENST00000338785|human|control|control (ssRNA)
RNA: GGGAGUUCUACAGUCCGACGAUCAACUAUCUUGAUUGCACUGCGUUUGGGGUUACAAAGAAGGAUAUUUUCAGGUUUUAGAUCACAGUGAAUGAUACUAAGUUCUGGAGUCGCAAGGAAAAGCAGUGCAGUGCACAUCUGUUGCAACAGAGGAUUGAGCAUCA
B7: 72865225_72873886_3810_CDS_ENSG00000009954_ENST00000339594|human|control|control (ssRNA)
RNA: GGGAGUUCUACAGUCCGACGAUCCUUGAUACAGGCAUCAAGCAUCCCAAGCAGCACGUGCAUCCUGGAGAAAGUCUGAGCUUCCCGGAUUGCUGUCUUCCAUUUCUCCAGUGCAGAUGCAACCUUUGCUUCCUCUACCAUUUUCAACAGAGGAUUGAGCAUCA
B8: chr2:179763710:179763711:+_ENSMUSG00000039108_ENSMUST00000058764|mus_hu|FALSE|FALSE (ssRNA)
RNA: GGGAGUUCUACAGUCCGACGAUCCUGCUGUGGCUCUGAGGACAAGUCAAGCUCUGAAACGGGCUGUGGAGAUGGAGAAGAGCUAGGGCUGGAAGCAGCGGCUGAGGCUGGAGGGCUUACCAACUUCUCUAGACCCAGGGAGGCCAACAGAGGAUUGAGCAUCA
B9: chr21:34877999:34878000:-_ENSG00000159131_ENST00000381815|hu_mus|FALSE|FALSE (ssRNA)
RNA: GGGAGUUCUACAGUCCGACGAUCGUCAACUGCAUUGUCAAACUCAACACGAUUUUUAUAUAAUUUGUGAUUAAUUACCCUGGUGGGAAUACCAGCUCGCUCAGCUCGGUCUAAGCCGGCUACGGCGGCUUUGUUGGAGAUGACCAACAGAGGAUUGAGCAUCA
B10: 125006376_125006618_7455_CDS_ENSMUSG00000014444_ENSMUST00000067252|mouse|control|control (ssRNA)
RNA: GGGAGUUCUACAGUCCGACGAUCUUGCUCCCUCCGCAGCUGGAUGCGCACACCAAGGUAGUCCUCUUCCUCAUCUGGCUGCAGCUGCUUCACAGGGUUGGCUUCAGGCCCAUUGGGAGCACGAAUGUACUUGGGGAAGAGAUGCAACAGAGGAUUGAGCAUCA
B11: chr11:87794392:87794393:-_ENSMUSG00000020483_ENSMUST00000020775|mus_hu|FALSE|FALSE (ssRNA)
RNA: GGGAGUUCUACAGUCCGACGAUCCCCCACCCUCCGCCCCAAGCCAUAGAAUCACAGUUCAGUGGAAUAUUCUCCCUGGUACUAGAUCAAUCCCUCCACCUUCCUUCCUACCCCUUUUUCCUUGACAAUCCCAACACUGUCCCCCAACAGAGGAUUGAGCAUCA
B12: 65616592_65618342_1538_CDS_ENSMUSG00000037890_ENSMUST00000041892|mouse|control|control (ssRNA)
RNA: GGGAGUUCUACAGUCCGACGAUCAUGCCGGUAAUCAUUAACGAACUGCCAGUCUUCGAUGAAGAAAUAGUGAAUGAUGCCAGUAUCAGUUCCGUAGAUGAGGAAAUCACUAGUUAGGGCGUGGCAUAAAAUCCGGCACUUAUCCAACAGAGGAUUGAGCAUCA
B13: chr4:101285476:101285477:+_ENSMUSG00000028528_ENSMUST00000094953|mus_hu|FALSE|FALSE (ssRNA)
RNA: GGGAGUUCUACAGUCCGACGAUCGAGAGGCUUGAAGUGAGGGCGGUAGGGCUUGUCUGCCAGUAGGUCACACAUAUAGCCCAGGUAUCUCCUAUGGGAUGGUGAAAGUCCAAUUCCUGGUCGCUUUGCAUAUAGCAAUCGAAUCAACAGAGGAUUGAGCAUCA
B14: 119660307_119660427_2552_CDS_ENSG00000150961_ENST00000280551|human|control|control (ssRNA)
RNA: GGGAGUUCUACAGUCCGACGAUCCUUGGCAAAGAAGUUGAUAAGAGCAUCUGUCUCACAGCUCUUAUAAAGAUCAGCUAGCUGAGAGCUGCAGUUUAAGCCAAGAUUGUGAAUCCGAAGUCUUCUUUGACCACUGAUUGUCGUCAACAGAGGAUUGAGCAUCA
B15: chr7:125341739:125341740:-_ENSMUSG00000030655_ENSMUST00000032891|mus_hu|FALSE|FALSE (ssRNA)
RNA: GGGAGUUCUACAGUCCGACGAUCUCUGUACAGAACAUCUGUUACAUAUGCCUCAGUAAUUGGAGGACCCCGAAUUGGGCUGAAGCGUUCCCCAAUGCUCCUCACCACAGUACUAAAUACCCGGAGAAGUGCAGCCAGCUUUGGCAACAGAGGAUUGAGCAUCA
B16: chr1:29069439:29069440:+_ENSG00000198492_ENST00000541996|hu_mus|motif|central (ssRNA)
RNA: GGGAGUUCUACAGUCCGACGAUCGCUGGUUUUGGAGGAGCAAUAGUAGCUGGAGGCAAACUGCUAGAAGCCACAAUGUUACGGGUGAUGGACCCACUACCAACAGCAGAGCCUACAACUUUUGGAACACUGCUUGCAACUUCUCAACAGAGGAUUGAGCAUCA
B17: 79860198_79860318_120_CDS_ENSG00000163291_ENST00000515853|human|control|control (ssRNA)
RNA: GGGAGUUCUACAGUCCGACGAUCGAUACACAGCCUGGACGGCAGGUAGGCCCGGUAGCCGUCGGUGAUGUACGGGUUGUCCUUGAGGGACCCGGGGAUCUGCUCGUAGGUGUACAGGCGGAUGCCACGGGGCACCAGGACCGGCAACAGAGGAUUGAGCAUCA
B18: chr1:130485734:130485735:-_ENSMUSG00000045382_ENSMUST00000052172|mus_mus|mus_mus_mus_hu_False|68_88 (ssRNA)
RNA: GGGAGUUCUACAGUCCGACGAUCGAUGAAGGAGUCGAUGCUGAUCCCCACAUAAUAAGGCAGCCAACAGGCAAAGAAAGCCAGGAUGAGGAUGACUGUGGUCUUGAGGGCCUUGCGCUUCUGGUGGCCCUUGGAGUGUGACAGCAACAGAGGAUUGAGCAUCA
B19: chr16:94651144:94651145:+_ENSMUSG00000040785_ENSMUST00000117648|mus_hu|mus_mus_mus_hu_True|98_108 (ssRNA)
RNA: GGGAGUUCUACAGUCCGACGAUCAUUCUCUUGGAUCAAGUGACCGAUAACAUAGUCCACUGCUUCAUUUAGAAAAUUUCUGCUAGAAAAACAGGUUGUAUAGUCUUCUGUGCUCAAAACUUUCCAAGAAAGCAAUUCUUUGAGCAACAGAGGAUUGAGCAUCA
B20: 32955150_32955270_2354_CDS_ENSG00000060749_ENST00000399302|human|control|control (ssRNA)
RNA: GGGAGUUCUACAGUCCGACGAUCUUCCUGGACCUUGGACUCAUGCACCUUAAGUAUGAGAGGAUGUUGCUGCUUUAAGUCUUUAGUAUUCAACCUUAUUUGUGGAGUCUGUAUUAAAUUAGUUGAGUUCUUAAGAUCAAGGGUCAACAGAGGAUUGAGCAUCA
B21: chr1:66461122:66461123:+_ENSMUSG00000015222_ENSMUST00000114013|mus_mus|motif|central (ssRNA)
RNA: GGGAGUUCUACAGUCCGACGAUCUGGUGAUGGGAGAGGGACUGUGUACUUGUUGAACACACAGUAUCCCAUGUCUUCAAGUUGACGGUCUGGUUUUACAGUGACUGGGCUUUCAUCAGCGACAGGUGGCAAACUGGUACUACUCAACAGAGGAUUGAGCAUCA
B22: chr4:41607924:41607925:+_ENSG00000064042_ENST00000508501|hu_hu|FALSE|FALSE (ssRNA)
RNA: GGGAGUUCUACAGUCCGACGAUCCGUUCCGCUGUAGGAUGUGCAGCUGUUUGCUGCUUUUCCCAGCCAGUAAAUGGUAACUAAUACAUUUUUCAGCUUCCUACUAUAAUCAAGGCUCUUGACUGUUACUCUGUUGGAUGUAUCCAACAGAGGAUUGAGCAUCA

Target: T1, UNK ZnF1-3
Assay: nsRBNS (natural sequence RNA bind-n-seq); RBNS binding buffer (assumed for nsRBNS): 25 mM Tris pH 7.5, 150 mM KCl, 3 mM MgCl2, 0.01% Triton X-100, 500 ug/ml BSA, 20 U/ml SUPERase-In, 4 C; UNK is unkempt and MSI1 is Musashi-1; names of the RNAs are library labels; protein concentration not given here; high values mean tight binding

Binder | binding signal [enrichment R]
B1 | 1.07
B2 | 0.974
B3 | 0.206
B4 | 1.4
B5 | 0.82
B6 | 0.899
B7 | 0.701
B8 | 1.55
B9 | 1.5
B10 | 0.679
B11 | 1.49
B12 | 0.679
B13 | 0.804
B14 | 0.677
B15 | 1.01
B16 | 1.32
B17 | 0.61
B18 | 1.3
B19 | 0.549
B20 | 1.67
B21 | 0.666
B22 | 0.509
